The other results are listed elsewhere or left out.
Assays:
Experiment in all cases: glycan array binding signal (z-score within array); higher = stronger binding
Details in all cases: glycan notation: IUPAC condensed, linker removed
[1] = biological target: Neu5Ac(a2-6)Gal(b1-4)GlcNAc(b1-3)Gal(b1-4)GlcNAc(b1-3)Gal(b1-4)GlcNAc
Summary of the method: (§1)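 From the Consortium for Functional Glycomics database, 3228 arrays were curated, keeping only those whose protein sequence was available. Binding is given as a within-array Z-score averaged across arrays sharing a protein sequence and across linkers. Negative Z-scores can be read as non-binding.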

[2] = biological target: Neu5Ac(a2-6)Gal(b1-4)GlcNAc(b1-3)Gal(b1-4)GlcNAc(b1-3)Gal(b1-4)GlcNAc(b1-2)Man(a1-3)[Neu5Ac(a2-6)Gal(b1-4)GlcNAc(b1-3)Gal(b1-4)GlcNAc(b1-3)Gal(b1-4)GlcNAc(b1-2)Man(a1-6)]GalNAc
Summary of the method: as §1

[3] = biological target: Neu5Ac(a2-6)Gal(b1-4)GlcNAc(b1-3)Gal(b1-4)GlcNAc(b1-3)GalNAc
Summary of the method: as §1

[4] = biological target: Neu5Ac(a2-6)Gal(b1-4)GlcNAc(b1-3)Gal(b1-4)GlcNAc(b1-3)[Neu5Ac(a2-6)Gal(b1-4)GlcNAc(b1-3)Gal(b1-4)GlcNAc(b1-6)]GalNAc
Summary of the method: as §1

[5] = biological target: Neu5Ac(a2-6)Gal(b1-4)GlcNAc(b1-3)Gal(b1-4)GlcNAc(b1-6)[Gal(b1-3)]GalNAc
Summary of the method: as §1

[6] = biological target: Neu5Ac(a2-6)Gal(b1-4)GlcNAc(b1-3)Gal(b1-4)[Fuc(a1-3)]GlcNAc(b1-3)Gal(b1-4)[Fuc(a1-3)]GlcNAc
Summary of the method: as §1

[7] = biological target: Neu5Ac(a2-6)Gal(b1-4)GlcNAc(b1-3)GalNAc
Summary of the method: as §1

[8] = biological target: Neu5Ac(a2-6)Gal(b1-4)GlcNAc(b1-3)[Neu5Ac(a2-6)Gal(b1-4)GlcNAc(b1-6)]GalNAc
Summary of the method: as §1

[9] = biological target: Neu5Ac(a2-6)Gal(b1-4)GlcNAc(b1-6)GalNAc
Summary of the method: as §1

[10] = biological target: Neu5Ac(a2-6)Gal(b1-4)GlcNAc(b1-6)[Gal(b1-3)GlcNAc(b1-3)]Gal(b1-4)Glc
Summary of the method: as §1

[11] = biological target: Neu5Ac(a2-6)Gal(b1-4)GlcNAc(b1-6)[Gal(b1-3)]GalNAc
Summary of the method: as §1

[12] = biological target: Neu5Ac(a2-6)Gal(b1-4)GlcNAc6S
Summary of the method: as §1

[13] = biological target: Neu5Ac(a2-6)GalNAc
Summary of the method: as §1

[14] = biological target: Neu5Ac(a2-6)GalNAc(b1-4)GlcNAc
Summary of the method: as §1

[15] = biological target: Neu5Ac(a2-6)GalNAc(b1-4)GlcNAc6S
Summary of the method: as §1

[16] = biological target: Neu5Ac(a2-6)GlcNAc(b1-4)GlcNAc
Summary of the method: as §1

[17] = biological target: Neu5Ac(a2-6)GlcNAc(b1-4)GlcNAc(b1-4)GlcNAc
Summary of the method: as §1

[18] = biological target: Neu5Ac(a2-8)Neu5Ac
Summary of the method: as §1

[19] = biological target: Neu5Ac(a2-8)Neu5Ac(a2-3)Gal(b1-3)GalNAc(b1-4)[Neu5Ac(a2-3)]Gal(b1-4)Glc
Summary of the method: as §1

[20] = biological target: Neu5Ac(a2-8)Neu5Ac(a2-3)Gal(b1-3)GalNAc(b1-4)[Neu5Ac(a2-8)Neu5Ac(a2-3)]Gal(b1-4)Glc
Summary of the method: as §1

[21] = biological target: Neu5Ac(a2-8)Neu5Ac(a2-3)Gal(b1-4)Glc
Summary of the method: as §1

[22] = biological target: Neu5Ac(a2-8)Neu5Ac(a2-3)Gal(b1-4)GlcNAc
Summary of the method: as §1

[23] = biological target: Neu5Ac(a2-8)Neu5Ac(a2-3)[Gal(b1-3)GalNAc(b1-4)]Gal(b1-4)Glc
Summary of the method: as §1

[24] = biological target: Neu5Ac(a2-8)Neu5Ac(a2-3)[GalNAc(b1-4)]Gal(b1-4)Glc
Summary of the method: as §1

[25] = biological target: Neu5Ac(a2-8)Neu5Ac(a2-8)Neu5Ac
Summary of the method: as §1

[26] = biological target: Neu5Ac(a2-8)Neu5Ac(a2-8)Neu5Ac(a2-3)Gal(b1-4)Glc
Summary of the method: as §1

[27] = biological target: Neu5Ac(a2-8)Neu5Ac(a2-8)Neu5Ac(a2-3)[Gal(b1-3)GalNAc(b1-4)]Gal(b1-4)Glc
Summary of the method: as §1

[28] = biological target: Neu5Ac(a2-8)Neu5Ac(a2-8)Neu5Ac(a2-3)[GalNAc(b1-4)]Gal(b1-4)Glc
Summary of the method: as §1

[29] = biological target: Neu5Ac(a2-8)Neu5Ac(a2-8)Neu5Ac(a2-8)Neu5Ac(a2-3)[GalNAc(b1-4)]Gal(b1-4)Glc
Summary of the method: as §1

[30] = biological target: Neu5Ac(a2-8)Neu5Gc(a2-3)Gal(b1-4)GlcNAc
Summary of the method: as §1

[31] = biological target: Neu5Ac(b2-6)Gal(b1-4)GlcNAc
Summary of the method: as §1

[32] = biological target: Neu5Ac(b2-6)GalNAc
Summary of the method: as §1

[33] = biological target: Neu5Ac9Ac(a2-3)Gal(b1-3)GlcNAc
Summary of the method: as §1

[34] = biological target: Neu5Ac9Ac(a2-3)Gal(b1-4)GlcNAc
Summary of the method: as §1

[35] = biological target: Neu5Ac9Ac(a2-6)Gal(b1-4)GlcNAc
Summary of the method: as §1

[36] = biological target: Neu5Gc(a2-3)Gal(b1-3)GlcNAc
Summary of the method: as §1

[37] = biological target: Neu5Gc(a2-3)Gal(b1-3)[Fuc(a1-4)]GlcNAc
Summary of the method: as §1

[38] = biological target: Neu5Gc(a2-3)Gal(b1-4)Glc
Summary of the method: as §1

[39] = biological target: Neu5Gc(a2-3)Gal(b1-4)GlcNAc
Summary of the method: as §1

[40] = biological target: Neu5Gc(a2-3)Gal(b1-4)GlcNAc(b1-3)Gal(b1-4)GlcNAc(b1-2)Man(a1-3)[Neu5Gc(a2-3)Gal(b1-4)GlcNAc(b1-3)Gal(b1-4)GlcNAc(b1-2)Man(a1-6)]Man(b1-4)GlcNAc(b1-4)GlcNAc
Summary of the method: as §1

[41] = biological target: Neu5Gc(a2-3)Gal(b1-4)[Fuc(a1-3)]GlcNAc
Summary of the method: as §1

[42] = biological target: Neu5Gc(a2-6)Gal(b1-4)GlcNAc
Summary of the method: as §1

[43] = biological target: Neu5Gc(a2-6)GalNAc
Summary of the method: as §1

[44] = biological target: Neu5Gc(a2-8)Neu5Ac(a2-3)Gal(b1-4)GlcNAc
Summary of the method: as §1

[45] = biological target: Neu5Gc(a2-8)Neu5Gc(a2-3)Gal(b1-4)GlcNAc
Summary of the method: as §1

B1: LICBM33A (Lactococcus lactis), Q9CE94 (protein)
chain: MKKLLTGLLVAAGLLSVSLLIKTDTVSAHGYVQSPPARGYQGQLDSQSLGWTAAFNIYGNVISNPQSLEAPKGFPECGPADGRIASANGGLGQIGDFVLDNQTSSRWKKTSISTGSNIFTWKYTAPHKTTKWHYYMTKTGWDQNAPLKHSELELIGTINHDGSPATNNLSHTINIPTDRSGYHIVLAVWDVADTSNAFYNVIDINVNNKNASSQVFGPFL
glycan array binding signal (z-score) [1]: -0.044
glycan array binding signal (z-score) [2]: 3.16
glycan array binding signal (z-score) [3]: -0.872
glycan array binding signal (z-score) [4]: -0.33
glycan array binding signal (z-score) [5]: -0.512
glycan array binding signal (z-score) [6]: -0.447
glycan array binding signal (z-score) [7]: -0.023
glycan array binding signal (z-score) [8]: -0.873
glycan array binding signal (z-score) [9]: -0.073
glycan array binding signal (z-score) [10]: 0.003
glycan array binding signal (z-score) [11]: 1.8
glycan array binding signal (z-score) [12]: 0.165
glycan array binding signal (z-score) [13]: -0.419
glycan array binding signal (z-score) [14]: 1.07
glycan array binding signal (z-score) [15]: -0.146
glycan array binding signal (z-score) [16]: -1
glycan array binding signal (z-score) [17]: -0.55
glycan array binding signal (z-score) [18]: 0.194
glycan array binding signal (z-score) [19]: 0.779
glycan array binding signal (z-score) [20]: -0.425
glycan array binding signal (z-score) [21]: -0.459
glycan array binding signal (z-score) [22]: -0.182
glycan array binding signal (z-score) [23]: -0.26
glycan array binding signal (z-score) [24]: -0.725
glycan array binding signal (z-score) [25]: -0.117
glycan array binding signal (z-score) [26]: -1
glycan array binding signal (z-score) [27]: 1.2
glycan array binding signal (z-score) [28]: -0.472
glycan array binding signal (z-score) [29]: -0.294
glycan array binding signal (z-score) [30]: 0.463
glycan array binding signal (z-score) [31]: -0.427
glycan array binding signal (z-score) [32]: -0.575
glycan array binding signal (z-score) [33]: 0.017
glycan array binding signal (z-score) [34]: 0.072
glycan array binding signal (z-score) [35]: -0.166
glycan array binding signal (z-score) [36]: 0.297
glycan array binding signal (z-score) [37]: -0.321
glycan array binding signal (z-score) [38]: -0.747
glycan array binding signal (z-score) [39]: -0.141
glycan array binding signal (z-score) [40]: 0.898
glycan array binding signal (z-score) [41]: 0.224
glycan array binding signal (z-score) [42]: -0.606
glycan array binding signal (z-score) [43]: 0.897
glycan array binding signal (z-score) [44]: -0.276
glycan array binding signal (z-score) [45]: 0.032
